# Where “and” joins values, the source holds several entries; their conditions need not be identical. Equal entries are not always repeated. Out of some 48,000 compounds screened, about 120 (0.25%) were called active. About 4% were inconclusive and are not listed. Calls come from the whole dose curve; as a rule, active = well fitted activation curve with a large enough effect; inconclusive = small, poorly fitted or top-dose-only effect, or another doubt; inactive = no such curve, though single readings can be large or run the other way. Some of the results follow.
# Experiment: Primary qHTS for Identification of Small Molecule Activators of Huntingtin-Antisense Promoter Activity; note: nearly all actives have a fitted effect of over 55% in size
# Details: HEK293 HTT-AS promoter firefly luciferase reporter, 24 h
# Outline: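 HEK293 cells carrying firefly luciferase reporters were seeded at 2,500 per well in Opti-MEM and cultured for 24 h. They were then treated with compounds at up to 57.5 uM final for 24 h at 37 degrees C before Dual-Glo luminescence readout.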
# [1] = at 57.5 µM (top of the series) unless noted
smiles,measurement,setting,value
COc1cc(OC)c(OC)cc1C=O,"activity change, positive = activation",at 57.5 µM (top of the series),inactive: -5.86%
same,"activity change, positive = activation",at 116 µM (top of the series),inactive: -7.96%
NN=C(N)N,"activity change, positive = activation",[1],inactive: -1.48%
Fc1cc(Br)ccc1CBr,"activity change, positive = activation",[1],inactive: -1.01%
CC(O)=C(C#N)C(=O)Nc1cc(Br)ccc1Br,"activity change, positive = activation",[1],inactive: 8.84%
CC(C)c1nn2c(=O)cc(COC(=O)Cc3ccccc3)nc2s1,"activity change, positive = activation",[1],inactive: 4.91%
N=c1c2c(-c3ccccc3)c(-c3ccccc3)n(Cc3ccccc3)c2ncn1C1CCC(O)CC1 (stereo not given),"activity change, positive = activation",[1],inactive: -23.1%
NC(=O)OCCCc1ccccc1,"activity change, positive = activation",[1],inactive: 2.91%
Nc1c(Cl)c(Cl)c(Cl)c(Cl)c1Cl,"activity change, positive = activation",[1],inactive: 2.41% [at 116 µM]
O=C1CN=C(c2ccccc2Cl)c2cc(Cl)ccc2N1Cc1cccc(Cl)c1,"activity change, positive = activation",[1],inactive: -42%
C[C@]12CCC(=O)C=C1CC[C@@H]1[C@@H]2CC[C@]2(C)C(=O)CC[C@@H]12,"activity change, positive = activation",[1],inactive: -15.3%
CC(=Cc1csc(C)n1)[C@@H]1C[C@H]2O[C@]2(C)CCC[C@H](C)[C@@H](O)[C@@H](C)C(=O)C(C)(C)[C@@H](O)CC(=O)O1,"activity change, positive = activation",[1],inactive: -29.6%
OC(c1ccccc1)(c1ccccc1)C1CCNCC1,"activity change, positive = activation",[1],inactive: -6.05%
COc1cccc(-n2c(/C=C/c3ccccc3O)nc3ccccc3c2=O)c1,"activity change, positive = activation",[1],inactive: -42.7%
Nc1c(C(=O)Nc2ccc(Cl)c(C(F)(F)F)c2)sc2nc3c(cc12)N1CCC3CC1,"activity change, positive = activation",[1],inactive: -72.3%
CC(O)CN1CCN(CC(=O)[O-])CCN(CC(=O)[O-])CCN(CC(=O)[O-])CC1.[Gd+3] (stereo not given),"activity change, positive = activation",[1],inactive: -2.56%
COc1ccc(-n2c(/C=C\c3ccccc3F)nc3ccccc3c2=O)cc1OC,"activity change, positive = activation",[1],inactive: -27.7%
CN1C2CCC(C)(C)C1CC(OC(=O)C(O)(c1cccs1)c1cccs1)C2 (stereo not given),"activity change, positive = activation",[1],inactive: -9.39%
O=C(N[C@H]1N=C(c2ccccc2F)c2cccc3c2N(CC3)C1=O)c1cc2ccccc2[nH]1,"activity change, positive = activation",[1],inactive: -10.6%
O=C(CBr)Nc1ccc(Cl)cc1C(=O)c1ccccc1F,"activity change, positive = activation",[1],inactive: -11.7%
CCCCC/C=C\C/C=C\C/C=C\C/C=C\CCCC(=O)NCC(=O)O,"activity change, positive = activation",[1],inactive: -1.88%
Cc1ccccc1-n1nc(C)c2c1NC(=O)CSC2c1ccc(N(C)C)cc1 (stereo not given),"activity change, positive = activation",[1],"inactive: -18.8% [at 57.5 µM, percent change from vehicle, -100% = no light]"
CCCCCc1nc2ccccc2c(=O)n1-c1ccc(C)cc1,"activity change, positive = activation",[1],inactive: -11.7%
CCCC1CCCCN1 (stereo not given),"activity change, positive = activation",[1],inactive: -5.54%
Cc1ccc(NC(=O)CN2C(=O)CN=C(c3ccccc3)c3ccccc32)cc1,"activity change, positive = activation",[1],inactive: -9.28%
CCCC(C)(COC(N)=O)COC(=O)NC(C)C (stereo not given),"activity change, positive = activation",[1],inactive: -4.88% and inactive: -4.33%
CCN(Cc1ccc(Cl)nc1)/C(=C/[N+](=O)[O-])NC,"activity change, positive = activation",[1],inactive: 2.07%
Cc1ccccc1-n1c(Cn2ncc3c(N)ncnc32)nc2cccc(C)c2c1=O,"activity change, positive = activation",[1],inactive: -25%
Cc1ccc(CN2C(=O)c3ccccc3Sc3ccc(C(=O)N4CCC5(CC4)OCCO5)cc32)cc1,"activity change, positive = activation",[1],inactive: -46.2%
CN1CC[C@]23c4c5ccc(O)c4O[C@H]2[C@@H](O)CC[C@H]3[C@H]1C5,"activity change, positive = activation",[1],inactive: -5.74% [at 116 µM]

# Reference: PubChem BioAssay AID1508624 (National Center for Advancing Translational Sciences (NCATS), 2021)
